# Test results published in paper PMC4336329 (PLoS ONE, 2015).
# Screen size: about 310,000 compounds; about 2,200 (0.71%) showed an effect of 50% or more. The effect is printed as a negative number. The list shows a part of the results.
# Biological target: human ether-à-go-go-related gene (hERG) potassium channel (human, UniProt Q12809)
# Assay: primary screen, population patch clamp on CHO cells stably expressing hERG
# Sequence of human ether-à-go-go-related gene (hERG) potassium channel (Q12809 whole entry, looked up): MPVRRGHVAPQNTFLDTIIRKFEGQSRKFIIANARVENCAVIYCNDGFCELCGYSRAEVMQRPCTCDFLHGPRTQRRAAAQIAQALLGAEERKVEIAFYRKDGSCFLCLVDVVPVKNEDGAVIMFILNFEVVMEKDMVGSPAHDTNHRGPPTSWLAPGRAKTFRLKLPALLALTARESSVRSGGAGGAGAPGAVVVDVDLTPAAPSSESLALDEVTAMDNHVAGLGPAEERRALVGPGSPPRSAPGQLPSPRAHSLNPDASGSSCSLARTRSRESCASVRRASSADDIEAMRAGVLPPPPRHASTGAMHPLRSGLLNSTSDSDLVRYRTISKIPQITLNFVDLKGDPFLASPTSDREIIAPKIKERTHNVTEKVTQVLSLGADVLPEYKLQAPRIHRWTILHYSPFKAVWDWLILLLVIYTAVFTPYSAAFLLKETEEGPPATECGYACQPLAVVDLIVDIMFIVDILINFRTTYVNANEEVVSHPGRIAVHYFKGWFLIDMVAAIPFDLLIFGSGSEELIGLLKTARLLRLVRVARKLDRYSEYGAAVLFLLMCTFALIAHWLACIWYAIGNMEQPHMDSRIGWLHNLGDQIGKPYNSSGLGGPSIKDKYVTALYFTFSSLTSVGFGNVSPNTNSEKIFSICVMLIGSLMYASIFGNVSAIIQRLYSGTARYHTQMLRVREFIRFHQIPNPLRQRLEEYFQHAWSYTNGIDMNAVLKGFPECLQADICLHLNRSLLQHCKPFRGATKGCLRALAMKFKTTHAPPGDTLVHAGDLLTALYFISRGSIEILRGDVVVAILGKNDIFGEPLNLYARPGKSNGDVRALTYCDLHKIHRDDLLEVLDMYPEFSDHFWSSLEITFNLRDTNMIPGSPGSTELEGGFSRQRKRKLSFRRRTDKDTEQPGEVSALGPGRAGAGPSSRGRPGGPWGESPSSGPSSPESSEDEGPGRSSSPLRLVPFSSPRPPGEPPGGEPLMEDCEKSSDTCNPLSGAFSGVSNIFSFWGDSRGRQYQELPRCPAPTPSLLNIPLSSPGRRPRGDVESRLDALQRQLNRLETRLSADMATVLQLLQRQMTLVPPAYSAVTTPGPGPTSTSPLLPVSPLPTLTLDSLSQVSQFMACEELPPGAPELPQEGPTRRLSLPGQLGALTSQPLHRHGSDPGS
row,Structure (SMILES),"hERG current change (%, negative = inhibition) at 1uM [%]"
1,O=C(Nc1cccnc1)c1ccc2snnc2c1,5.05
2,Cc1nc(OCc2c(C)noc2C)c2ccccc2n1,13.1
3,CCC(=O)Nc1cc(OC)cc(OC)c1,7.75
4,COCCNC(=O)CNC(=S)N(Cc1ccccc1)Cc1cccnc1,3.49
5,O=C(Nc1cccc(-c2nc3ncccc3o2)c1)c1sc2cc(Cl)ccc2c1Cl,7.56
6,Cc1ccc(-n2c(O)c(/C=N/N3CCCCCC3)c(=O)[nH]c2=O)cc1C,11.7
7,O=C1C=C(NCc2ccco2)C2(CCCCC2)O1,12
8,COc1ccc(/C=C(\NC(=O)c2cccs2)C(=O)NC(C)(C)C)cc1OC,11.2
9,CC(=O)Nc1ccc(SC[C@H](CC(C)C)N2CCN(CC(C)C)CCC2=O)cc1,-10
10,COc1ccc(C(=O)N/C(=C\c2ccc3c(c2)OCO3)C(=O)Nc2ccc(C(=O)O)cc2)cc1,10.6
11,O=C(Nc1nnc(SCc2ccccc2Cl)s1)c1cccc([N+](=O)[O-])c1,3.89
12,Cc1ccc(-n2ncc3c(SCC(=O)Nc4cc(C)on4)ncnc32)c(C)c1,7.97
13,O=C(/C=C/c1ccccc1Cl)NNC(=O)c1ccncc1,5.81
14,COc1ccc(C(C)=O)cc1CC(C(=O)c1ccc(Br)cc1)N(C)C (stereo not shown),9.63
15,Cc1cc(NS(=O)(=O)c2ccc(NC(=O)c3ccc(Cl)cc3[N+](=O)[O-])cc2)no1,17
16,COc1ccccc1NC(=O)c1cc(S(=O)(=O)NCc2ccccc2)ccc1F,12.1
17,CCC(/C=N/NC(=O)C(=O)N/N=C/C(CC)CC)CC,11.9
18,N#C/C=C/C#N,7.86
19,Cc1ccc2cc(CCNC(=O)C(C)C)c(=O)[nH]c2c1C,13.2
20,CC1SC(C)C(=O)N(CC(=O)Nc2ccc3c(c2)OCO3)C1=O (stereo not shown),5.06

row,Structure (SMILES),"hERG current change (%, negative = inhibition) at 1uM [%]"
1,O=C(Cn1c(=O)oc2ccccc21)Nc1ccc(F)c(F)c1,10.6
2,Cc1occc1C(=O)N/N=C/c1ccc(OCc2ccccc2)cc1,10.1
3,CC(NC(=O)c1ccc(N(C)C)cc1)c1ccc(F)cc1 (stereo not shown),6.16
4,Cc1cc(C)n(C(=O)CCNC(=O)c2ccccc2Br)n1,12.8
5,CCN(CC)CCNc1nc2c(c(=O)n(C)c(=O)n2C)n1C/C=C(/C)Cl,-44.6
6,Nc1ccccc1S(=O)(=O)NC1=NCCCCC1,8.35
7,COc1ccc(CCn2nnnc2C(CC(C)C)N2CCC(C(N)=O)CC2)cc1OC (stereo not shown),3.82
8,Cl.c1ccc(-c2nc(NCc3cccnc3)c3oc4ccccc4c3n2)cc1,11.1
9,NC(=O)C1=C[C@H](c2ccc(Br)cc2)C[C@H](OCc2ccc(CO)cc2)O1,9.19
10,COc1ccc(C(c2nnnn2Cc2cccs2)N2CCN(c3ccccc3F)CC2)cc1 (stereo not shown),8.8
11,CCC(C)C(=O)Nc1ncc2c(n1)CC(c1cccs1)CC2=O (stereo not shown),-3.87
12,O=C(O)c1cnn(-c2ccccc2)c1-c1ccccc1,16.9
13,C/C(CC(=O)Nc1cc(Cl)ccc1Cl)=N\NC(=O)COc1cccc(C)c1,16.3
14,CCC1CCCCN1CC(=O)Nc1cc(C)nn1-c1nc(C)cc(C)n1 (stereo not shown),-10.3
15,CC1CCC(NC(=O)CN2C(=O)NC3(CCCCC3C)C2=O)CC1 (stereo not shown),12.2
16,CCOC(=O)c1[nH]cnc1C(=O)Nc1ccc([N+](=O)[O-])cc1,5.19
17,COc1ccc(C(=O)NCc2ccc(Cl)c(Cl)c2)cc1OC,0.388
18,CC(C)c1nnc(SCC(=O)N2CCc3ccccc32)n1C,-4.56
19,Cc1ccc(S(=O)(=O)N2CCOCC2)cc1NC(=O)COC(=O)CSc1ccc(Br)cc1C,2.39
20,Cc1cc(C(F)(F)F)cc(NNC(=O)NC(=O)c2ccccc2Cl)n1,12.3

row,Structure (SMILES),"hERG current change (%, negative = inhibition) at 1uM [%]"
1,CCc1ccc(NC(=O)NC(C)c2ccc3c(c2)OCO3)cc1 (stereo not shown),4.18
2,COCC(=O)Nc1ccccc1C(=O)Nc1ccc(OC)cc1,-6.86
3,CS(=O)(=O)n1nc(OC(=O)c2cc(Br)ccc2Cl)cc1N,12.2
4,Cc1c(N=C2N=C(NC(=O)Nc3ccc(Cl)cc3)c3ccccc32)c(=O)n(-c2ccccc2)n1C,14.3
5,COc1ccc(/C=C/C(=O)NCCN=C2NS(=O)(=O)c3ccccc32)cc1,6.82
6,Cc1cc(=O)[nH]c(/N=C(\N)Nc2ccc3c(c2)OCCO3)n1,12
7,CC(=O)NC12CC3CC(C1)CC(C(=O)OCC(=O)NC(=O)c1cccn1C)(C3)C2,5.52
8,CCOc1ccc(OCCC(=O)OCC(=O)NC2CCCC2)cc1,27.2
9,CC(C)(C)[C@H]1C=C(C(=O)N2CCOCC2)O[C@@H](OCCCCO)C1,8.26
10,Cc1ccc(CNC(=O)c2ccc(Br)o2)cc1,5.75
11,O=C(NCCCNC(=O)c1c(Cl)cccc1Cl)c1c(Cl)cccc1Cl,20.1
12,Cc1cc(C(=O)N/N=C/c2cccnc2)n[nH]1,12.4
13,CCOC(=O)N1CCC(n2c(SCC(=O)NCc3ccco3)nc3ccsc3c2=O)CC1,-15.4
14,Cc1ccc2c(NC(=O)C3CC3)cccc2n1,6.88
15,COc1ccc(NC(=S)N2CCN(S(=O)(=O)c3ccc(F)cc3)CC2)cc1OC,10.8
16,Cc1nnsc1C(=O)NNc1ccc(Cl)cc1,1.36
17,CC(=O)c1nn(-c2ccccc2)cc1C(=O)c1ccc(C)cc1,14.8
18,COc1cc(NC(=O)c2ccnn2C)c(OC)cc1Cl,12.3
